# The whole screen tested about 370,000 compounds, of which about 150 (0.041%) were called active. Inconclusive results, whose numbers are uncertain, are shown with a selection of clear calls. Calls come from the whole dose curve; as a rule, active = well fitted inhibition curve with a large enough effect; inconclusive = small, poorly fitted or top-dose-only effect; inactive = flat fitted curve, though single readings scatter. No potency is given beside an inconclusive call; the fits are too rough.
# Biological target: Beta-lactamase (Escherichia coli (strain K12)) (UniProt P00811)
# Assay: qHTS Inhibitors of AmpC Beta-Lactamase (assay with detergent); note: nearly all actives have a fitted effect of over 25% in size;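 for activity change, negative = inhibition: 0% = no-compound wells and -100% = no-enzyme wells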
# Conditions: AmpC hydrolysis of nitrocefin, absorbance 480 nm, 0.01% Triton; activity change, negative = inhibition: at 114 µM (top of the series)
# Summary of the method: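 20 mM phosphate pH 7.0 + 0.01% (detergent screen) or 0.0001% Triton X-100; 5.3 nM AmpC reagent; cpd preinc 15 min RT; nitrocefin (800 uM stock) to start; A480 q20 s × 4 min; Activity was normalised to no-enzyme and no-compound control wells.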
# Potency is the fitted concentration of half-maximal effect; tags give direction and shape of the fitted curve.
# Sequence of UniProt P00811 (P00811 whole entry, looked up): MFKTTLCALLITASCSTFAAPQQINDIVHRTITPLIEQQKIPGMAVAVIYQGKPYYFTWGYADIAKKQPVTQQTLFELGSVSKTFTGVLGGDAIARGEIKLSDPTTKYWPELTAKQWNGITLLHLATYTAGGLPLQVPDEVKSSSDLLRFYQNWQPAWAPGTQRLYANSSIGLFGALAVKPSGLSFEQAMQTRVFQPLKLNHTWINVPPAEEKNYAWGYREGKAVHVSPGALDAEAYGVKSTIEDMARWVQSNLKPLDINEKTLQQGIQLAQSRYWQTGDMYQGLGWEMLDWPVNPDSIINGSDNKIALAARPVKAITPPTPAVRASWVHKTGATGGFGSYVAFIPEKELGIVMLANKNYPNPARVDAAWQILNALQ
SMILES,Potency,"activity change, negative = inhibition"
Cc1ccc(NC(=O)Cn2nc(C)c3ccccc3c2=O)cc1F,"inconclusive [inhibitor, partial curve, poor fit]",–
NC(=O)CC(NC(=O)c1cccc(Br)c1)c1ccc(NCC2CC2)c([N+](=O)[O-])c1 (centres undefined),"inconclusive [inhibitor, full curve, poor fit]",–
O=C1CC(N2CCN(c3ccccc3)CC2)C(=O)N1CCc1ccccc1 (centres undefined),"inconclusive [inhibitor, full curve, poor fit]",–
O=C(Cn1cnc2ccccc2c1=O)NCc1cccs1,"inconclusive [inhibitor, single point]",–
CCCCn1c(N)c(N(CCOC)C(=O)CSc2nnc(-c3ccncc3)n2CCC)c(=O)[nH]c1=O,"inconclusive [inhibitor, full curve, poor fit]",–
O=C(/C=C/c1ccco1)N1CCC(Cc2ccccc2)CC1,–,inactive: -2.06%
Cc1ccc(-c2ccc(S(=O)(=O)N3CCN(C)CC3)cc2)cc1,"inconclusive [inhibitor, full curve, poor fit]",–
O=C1CC(C(=O)Nc2ccc(F)cc2)n2cnnc2N1 (centres undefined),"inconclusive [inhibitor, single point]",–
CCCCN(C)CCNC(=O)Cn1ncc2c3ccccc3n(CCC)c2c1=O,–,inactive: -2.27%
Cc1cc2c(ncn2Cc2ccccc2)c(N)c1C,"inconclusive [inhibitor, full curve, poor fit]",–
COc1ccc(/C=C(\NC(=O)c2ccccc2)C(=O)OC[C@@H]2CCC[N+]3(C)CCCCC23)cc1OC (some centres undefined),"inconclusive [inhibitor, single point]",–
Cc1ccc(NC(=O)c2ccc3nc(Cc4ccccc4)oc3c2)cc1F,–,inactive: 1.39%
Cc1ccc(NS(=O)(=O)c2cccc(C(=O)N3CCCCCCC3)c2)cc1,"inconclusive [inhibitor, full curve, poor fit]",–
C1CCC2(CC1)C1=C(CCCC1)Nc1nnnn12,"inconclusive [inhibitor, full curve, poor fit]",–
C=C(C)c1cccc(C(C)(C)NC(=O)NCc2ccc(OC)c(OC)c2)c1,–,inactive: -15.5%
Cc1cccc(OCC(=O)Nc2ccc(C(=O)NCc3cccnc3)cc2)c1,–,inactive: -17.8%
CCCCOc1cccc(/C=N/NC(=O)c2csc(C)c2C)c1,–,inactive: -14.1%
COc1ccc(CCc2nnc(CCC(=O)N(C)Cc3ccncc3C)o2)cc1,–,inactive: 7.34%
Cc1ccccc1NC(=O)C1C2CCC(O2)C1C(=O)O (centres undefined),"inconclusive [inhibitor, full curve, poor fit]",–
Cn1c(O)c(/C=C2\N=c3ccccc3=C2CCNC(=S)NC2CC2)c(=O)n(C)c1=O,–,inactive: -9.87%
CC(=O)N1CCN(CCN=CC2=C(O)CC(c3ccc(Cl)cc3)CC2=O)CC1 (centres undefined),"inconclusive [inhibitor, full curve]",–
O=C1C=C(c2cccc(CO)c2)C[C@@H](c2ccc(F)cc2)C1,–,inactive: 3.91%

SMILES,Potency,"activity change, negative = inhibition"
CC1CCCCN1C(=O)CSc1nnc(-c2cccc(Cl)c2)o1 (centres undefined),–,inactive: 15.6%
O=C(COc1ccc(Cl)cc1)Nc1ccccc1C(=O)NCc1ccco1,"inconclusive [inhibitor, full curve, poor fit]",–
O=C(Nc1cccc(S(=O)(=O)N2CCCC2)c1)c1ccc2c(=O)n3c(nc2c1)CCCCC3,"inconclusive [inhibitor, full curve, poor fit]",–
OCC1(C2=NOC(O)(C(F)(F)F)C2)CCCCC1 (centres undefined),"inconclusive [inhibitor, full curve, poor fit]",–
Cc1c(C(=O)O)oc2c1C(O)CC(C)(C)C2 (centres undefined),"inconclusive [inhibitor, single point]",–
COc1ccc(C(=O)NCC(C)(C)N2CCOCC2)cc1S(=O)(=O)N1CCCC1,–,inactive: -0.662%
Cc1nccc2c1[nH]c1ccccc12,–,inactive: 3.21%
Cc1cccc(C2N3CC4(C(C)C)CN2CC(C(C)C)(C3)C4=O)c1 (centres undefined),–,inactive: 4.51%
Cc1ccc(S(=O)(=O)N2CCCN(S(=O)(=O)c3ccc4ccccc4c3)CC2)cc1,–,inactive: -10.9%
CC(C)c1ccc(C2CC(=O)N3CN(C)CSC3=C2C#N)cc1 (centres undefined),"inconclusive [inhibitor, partial curve]",–
CC[C@@]12C(=O)N(c3cccc(F)c3)C(=O)N1[C@H](c1ccc(Br)cc1)[C@@H]1C(=O)N(C(C)(C)C)C(=O)[C@@H]12,"inconclusive [inhibitor, single point]",–
Cc1ccc(-n2ncc(C(=O)NCc3cccs3)c2C2CCN(C(=O)OC(C)(C)C)CC2)cc1C,–,inactive: 19.1%
Cc1ccc(NC(=O)CCNS(=O)(=O)c2ccc3c(c2)CCC(=O)N3)c(Br)c1,"inconclusive [inhibitor, partial curve, poor fit]",–
O=C(NCC1CCCN1S(=O)(=O)c1cccs1)c1ccc([N+](=O)[O-])cc1 (centres undefined),"inconclusive [inhibitor, full curve, poor fit]",–
O=C(Nc1ccncc1)C1(c2ccccc2)CCCC1,"inconclusive [inhibitor, partial curve, poor fit]",–
CCN(CC)C(=O)CN(c1ccc2c(c1)OCO2)S(C)(=O)=O,"inconclusive [inhibitor, single point]",–
CN1CCN(C(CNC(=O)C(=O)Nc2ccc3c(c2)OCCO3)c2ccc(F)cc2)CC1 (centres undefined),"inconclusive [inhibitor, full curve, poor fit]",–
O=C(c1cc2cc(F)ccc2[nH]1)N1CCc2ccccc2C1,"inconclusive [inhibitor, full curve, poor fit]",–
Fc1ccccc1N1CCN(CC2CC3C=CC2C3)CC1 (centres undefined),"inconclusive [inhibitor, full curve, poor fit]",–
CCOC(=O)c1c(C)oc2c1c(C=NCCO)c(O)c1ccccc12,–,inactive: 0.192%
CC(=O)Nc1cccc(-c2cc(-c3c(Cl)cccc3Cl)no2)c1,–,inactive: -0.355%
COc1cccc(-n2nnnc2SCC(=O)N2CCCc3ccccc32)c1,"inconclusive [inhibitor, single point]",–

# From PubChem BioAssay AID485294 (National Center for Advancing Translational Sciences (NCATS), 2010)
